# Test results published in PubChem BioAssay AID493208 (National Center for Advancing Translational Sciences (NCATS), 2011).
# Hit rate of the full screen: of about 44,000 compounds, about 340 (0.77%) were called active. Another 5% or so got no clear call; they are omitted. Calls follow the shape of the dose curve; as a rule, active = well fitted inhibition curve with a large enough effect; inconclusive = small, poorly fitted or top-dose-only effect; inactive = flat fitted curve, though single readings scatter. This is one part of the list.
# Assay: Acumen qHTS Assay for Inhibitors of the mTORC1 Signaling Pathway in MEF (Tsc2-/-, p53-/-) Cells: Sytravon;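 also: plate controls were DMSO for no effect and rapamycin for full effect; nearly all actives have a fitted effect of over 50% in size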
# Details: phospho-rpS6 immunofluorescence/PI, 24 h; series mostly up to 38.3 µM; activity change, negative = inhibition: at the top concentration
# Outline: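 Plate MEFs (Tsc2-/-, p53-/-, empty vector) in DMEM/10% FBS; after 24 h add compound, incubate 24 h at 37 degree Celsius; fix in PFA/TX-100, block, stain phospho-rpS6 and 10 uM PI; scan at 488 nm; report % positive cells.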
row,SMILES,"activity change, negative = inhibition"
1,C#CC(C)(CC)NC(=O)c1cnn2c(C(F)F)cc(-c3ccccc3OC)nc12 (configuration not stated),inactive: -2.44%
2,Cc1cc(C)n(CCc2nc3c4ccccc4nc(N4CCN(c5ccccc5F)CC4)n3n2)n1,inactive: -0.0434%
3,COc1ccc(CCNc2ncnc3c2cnn3-c2cccc(Cl)c2)cc1,inactive: 5.62%
4,CC(C)CCNC(=O)c1ccc2c(c1)NC(=O)C(CS(=O)(=O)Cc1cccc(Br)c1)N2 (configuration not stated),inactive: -9.25%
5,Cc1ccc(NC(=O)/C(C#N)=C/c2ccc(C)o2)cc1,inactive: -5.46%
6,Cc1ccc(Cn2ccnc2SCC(=O)NCc2ccc(F)cc2)cc1,inactive: -1.73%
7,COc1ccc(OCCCCn2c(C3CC(=O)N(c4cccc(Cl)c4)C3)nc3ccccc32)cc1 (configuration not stated),inactive: -0.44%
8,CCOC(=O)C1CCN(CC(=O)N2CCCc3c2c(=O)oc2ccc(OCc4ccccc4)cc32)CC1,inactive: 2.13%
9,COc1ccc(-c2onc(C)c2C)cc1S(=O)(=O)N(C)Cc1ccco1,inactive: 4.92%
10,CN1C(=O)C2(SCC(=O)N2c2cccc(C(F)(F)F)c2)c2ccccc21 (configuration not stated),inactive: -1.29%
11,CCOC(=O)C1CCC(CN(Cc2ccc(Cl)cc2)S(=O)(=O)c2ccc(Br)cc2)CC1 (configuration not stated),inactive: 5.12%
12,CCCN1CCN(CCNC(=O)Nc2ccc(OC)c(OC)c2)CC1,inactive: 4.79%
13,CCS(=O)(=O)N1CCc2cc(C(=O)NCCc3ccccc3)ccc21,inactive: -3.3%
14,CCOc1ccc(NC(=O)c2cn(C)c(=O)c3cc(OC)c(OC)cc23)cc1,inactive: -8.1%
15,CCS(=O)(=O)N1CC(=O)N(c2cccc(Cl)c2C)C(C)(C(=O)NC2CCCCC2)C1 (configuration not stated),inactive: 3.24%
16,CCCN(c1ccccc1CC)S(=O)(=O)c1ccc2c(c1)CC(C)N2C(=O)C1CC1 (configuration not stated),inactive: -17.8%
17,CCN(CCCNC(=O)c1cc2cc3ccc(C)cc3nc2s1)c1ccccc1,inactive: -16.6%
18,COCCNC(=O)CCCN1C(=O)c2ccccc2Sc2ncccc21,inactive: -0.343%
19,COc1ccc(-c2nc(CSCC(=O)N3CCN(c4ccc(OC)cc4)CC3)c(C)o2)cc1,inactive: 2.03%
20,Cc1ccc(NC(=O)c2oc3ccc(S(=O)(=O)N(C)C4CCCCC4)cc3c2C)cc1Cl,inactive: 11.9%
21,O=S(=O)(c1cccc(F)c1)N1CCC(c2nc3ccccc3s2)CC1,inactive: -3.01%

row,SMILES,"activity change, negative = inhibition"
1,CCCCN(CCCC)CC(O)Cn1cc(/C=C/C(=O)c2ccccc2)c2ccccc21 (configuration not stated),inactive: -20.8%
2,O=c1c(=O)n(-c2cccc(Cl)c2)ccn1Cc1cccc(F)c1,inactive: 2.66%
3,CC(=O)N1CCc2cc(S(=O)(=O)NC(CC(C)C)C(=O)NCc3ccccc3)ccc21 (configuration not stated),inactive: 0.0091%
4,COc1cccc2c1cc1c(=O)n(CC(=O)NC3CC3)nc(C)n12,inactive: 3.63%
5,COc1cccc(-c2nc(CSCC(=O)NCCc3ccc(Cl)cc3)c(C)o2)c1,inactive: 0.998%
6,CCCCC(CC)CNC(=O)CCCn1c(=O)[nH]c2ccsc2c1=O (configuration not stated),inactive: -1.92%
7,Cc1ccc(-c2nc(N3CCN(c4ccccc4Cl)CC3)c3ccccc3n2)cc1,inactive: -2.83%
8,COc1ccc(C)cc1Nc1nc(-c2cccc(Cl)c2)c2c(n1)-c1ccccc1OC2,inactive: -1.22%
9,COc1cc(-c2nc(Cn3nnc(C(=O)Nc4cc(C)cc(C)c4)c3C)c(C)o2)cc(OC)c1OC,inactive: -11.5%
10,CCOC(=O)c1cc(-c2ccccc2)n(CC(=O)N(C)c2ccc(OC)cc2)c1C,inactive: -3.07%
11,CCOc1ccc(NC(=O)C(NC(=O)C2CCC(C)CC2)C(C)C)cc1 (configuration not stated),inactive: 0.916%
12,COc1ccc(CNC(=O)CN(c2ccccc2)S(=O)(=O)N(C)C)cc1,inactive: 1.38%
13,CCOC(=O)c1cc2c(=O)n3ccccc3nc2n(CCCOC)c1=NC(=O)C(C)Oc1ccccc1 (configuration not stated),inactive: 0.695%
14,CN(C)S(=O)(=O)c1ccc(C(=O)N2CC(=O)Nc3ccc(Br)cc3C2c2ccc(F)cc2)cc1 (configuration not stated),inactive: -18.2%
15,Cc1ccc(CNC(=O)c2ccc(Cn3c(SCc4ccccc4F)nc4cccnc43)cc2)cc1,inactive: 0%
16,CC1CCN(C(=O)Cn2c(=O)oc3cc(S(=O)(=O)N4CCCCC4)ccc32)CC1,inactive: -5.68%
17,CCOc1ccc(CC(=O)NCCc2sc3nc(-c4ccc(OC)cc4)nn3c2C)cc1,inactive: -2.64%
18,Cc1cc(C)cc(NC2=CC(c3cccc(F)c3)N(c3cc(C)cc(C)c3)C2=O)c1 (configuration not stated),inactive: -0.469%
19,Cc1cc(=O)n(Cc2cccc(Cl)c2)c2c1c(C)nn2-c1ccccc1,inactive: 0.0126%
20,CCN(CC)C(=O)c1sc2c(c1C)c(=O)n(-c1ccccc1)c(=O)n2CC(=O)Nc1ccc(C)cc1C,inactive: 0.771%
21,Cc1cccc(-n2c(=O)c3c4c(sc3n3cnnc23)CCCC4)c1,inactive: -13.4%

row,SMILES,"activity change, negative = inhibition"
1,CCN1CCN(c2c(S(=O)(=O)c3ccc(C)c(C)c3)cnc3cc(OC)c(OC)cc23)CC1,inactive: -17.2%
2,CCN(CC)S(=O)(=O)c1nnc(NC(=O)COc2ccc(Cl)cc2)s1,inactive: 1.44%
3,CCCCSc1ncnc2c1c(-c1ccccc1)cn2-c1cccc(F)c1,inactive: -4.52%
4,CCN(CC)CCNC(=O)c1ccc2c(c1)sc1nc(-c3ccc(F)cc3)cn12,inactive: -11%
5,CCOC(=O)Cn1cnc2onc(-c3ccc(F)cc3)c2c1=O,inactive: -25.6%
6,COc1ccc(C(CNC(=O)COc2ccc(Cl)c(C)c2)N2CCOCC2)cc1 (configuration not stated),inactive: -0.506%
7,Cc1cc(C)cc(NS(=O)(=O)c2ccc3c(c2)NC(=O)C(C)S3)c1 (configuration not stated),inactive: 5.36%
8,CCOC(=O)c1c(C)oc2nc(C)nc(Nc3ccc(CC)cc3)c12,inactive: 0.871%
9,CCn1c(C(=O)N2CCC(C(=O)NCCc3ccc(OC)cc3OC)CC2)cc2sccc21,inactive: -4.24%
10,CCc1ccc(S(=O)(=O)c2nnn3c2nc(NC2CCCCCC2)c2sccc23)cc1,inactive: -4.1%
11,Cc1c(C(=O)NCc2ccccc2Br)oc2c1-c1[nH]ncc1CC2,inactive: 1.62%
12,CCOC(=O)C(CC)Sc1ccc2nnc(CCNS(=O)(=O)c3ccc(C)cc3)n2n1 (configuration not stated),inactive: 7.12%
13,COc1cccc2c1Oc1ncccc1N(C(=O)Nc1ccc(F)c(Cl)c1)C2,inactive: 0%
14,Cc1ccc(C)c(CN2C(=O)c3ccccc3S(=O)c3ccc(C(=O)NCc4ccccc4)cc32)c1 (configuration not stated),inactive: -11.9%
15,CCOCCCNC(=O)C1CCC(CNS(=O)(=O)c2ccc(NC(C)=O)cc2)CC1 (configuration not stated),inactive: -1.12%
16,COc1ccccc1Cc1nc2ccccc2[nH]c1=O,inactive: -0.526%
17,COc1ccc(NC(=O)c2ccc(-c3nc(CSc4ccccc4)c(C)o3)cc2)cc1OC,inactive: -5.67%
18,CCn1cc(C(=O)N2CCN(c3cccc(Cl)c3)CC2)c(=O)c2cc(S(=O)(=O)N3CCCCC3)ccc21,inactive: -2.53%
19,COc1ccc(C(CNC(=O)c2oc3ccc(C)cc3c2C)N2CCOCC2)cc1 (configuration not stated),inactive: -1.44%
20,COc1ccc(OC)c(NC(=O)N2CCN(S(=O)(=O)c3ccc4c(ccn4C)c3)CC2)c1,inactive: 1.95%
